# According to paper PMC12820563:
# This is one part of the list. The list includes weakly bound sequences.
# Biological target: T1, MBP-FoxP3dN (UniProt Q99JB6)
# T1 sequence: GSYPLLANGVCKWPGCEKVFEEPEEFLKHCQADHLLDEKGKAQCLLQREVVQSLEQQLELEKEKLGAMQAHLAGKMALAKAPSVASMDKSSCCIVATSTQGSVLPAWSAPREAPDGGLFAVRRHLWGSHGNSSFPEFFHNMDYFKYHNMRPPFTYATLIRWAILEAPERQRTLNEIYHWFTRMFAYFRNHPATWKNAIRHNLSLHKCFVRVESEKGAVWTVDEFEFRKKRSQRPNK
# Test: PD-seq (MBP pull-down with sequencing)
# Conditions: 20 mM Tris-HCl pH 7.5, 100 mM NaCl, 1.5 mM MgCl2, 0.4 uM protein, 0.1 uM dsDNA library, 30 min, room temperature, amylose pull-down; high values mean tight binding; double strand, one strand shown
row,Sequence,binding signal (RPM ratio (pull-down/input))
1,GATGATTGTTCTCCCAGCTGATGAATTACAGTACTCGAGTAAACAAATTTTCCTAATCTTTCTGTTCAAGCGCCATCTAC,0.485
2,GATGATTGTTCTCCCAGCTGATGAATTATTACGCTCGAGTAAACAAATTTTCCTAATCTTTCTGTTCAAGCGCCATCTAC,0.426
3,GATGATTGTTCTCCCAGCTGATGAATTCACGCAATCGAGTAAACAAATTTTCCTAATCTTTCTGTTCAAGCGCCATCTAC,2.61
4,GATGATTGTTCTCCCAGCTGATGAATTAGAGGGTTCGAGTAAACAAATTTTCCTAATCTTTCTGTTCAAGCGCCATCTAC,0.459
5,GATGATTGTTCTCCCAGCTGATGAATTACAATACTCGAGTAAACAAATTTTCCTAATCTTTCTGTTCAAGCGCCATCTAC,0.76
6,GATGATTGTTCTCCCAGCTGATGAATTCCGGAGCTCGAGTAAACAAATTTTCCTAATCTTTCTGTTCAAGCGCCATCTAC,0.179
7,GATGATTGTTCTCCCAGCTGATGAATTGAGTCCCTCGAGTAAACAAATTTTCCTAATCTTTCTGTTCAAGCGCCATCTAC,0.504
8,GATGATTGTTCTCCCAGCTGATGAATTTGTGTCTTCGAGTAAACAAATTTTCCTAATCTTTCTGTTCAAGCGCCATCTAC,4.89
9,GATGATTGTTCTCCCAGCTGATGAATTCACCCCGTCGAGTAAACAAATTTTCCTAATCTTTCTGTTCAAGCGCCATCTAC,0.253
10,GATGATTGTTCTCCCAGCTGATGAATTTACTCGTTCGAGTAAACAAATTTTCCTAATCTTTCTGTTCAAGCGCCATCTAC,0.465
11,GATGATTGTTCTCCCAGCTGATGAATTGATAGATTCGAGTAAACAAATTTTCCTAATCTTTCTGTTCAAGCGCCATCTAC,0.495
12,GATGATTGTTCTCCCAGCTGATGAATTGCCCATTTCGAGTAAACAAATTTTCCTAATCTTTCTGTTCAAGCGCCATCTAC,0.59
13,GATGATTGTTCTCCCAGCTGATGAATTAAGAACGTCGAGTAAACAAATTTTCCTAATCTTTCTGTTCAAGCGCCATCTAC,0.261
14,GATGATTGTTCTCCCAGCTGATGAATTTAGCCCCTCGAGTAAACAAATTTTCCTAATCTTTCTGTTCAAGCGCCATCTAC,1.52
15,GATGATTGTTCTCCCAGCTGATGAATTGCAAGTCTCGAGTAAACAAATTTTCCTAATCTTTCTGTTCAAGCGCCATCTAC,0.893
16,GATGATTGTTCTCCCAGCTGATGAATTCTGTGTTTCGAGTAAACAAATTTTCCTAATCTTTCTGTTCAAGCGCCATCTAC,3.31
17,GATGATTGTTCTCCCAGCTGATGAATTGCGCCAGTCGAGTAAACAAATTTTCCTAATCTTTCTGTTCAAGCGCCATCTAC,3.34
18,GATGATTGTTCTCCCAGCTGATGAATTCGCTGCCTCGAGTAAACAAATTTTCCTAATCTTTCTGTTCAAGCGCCATCTAC,0.781
19,GATGATTGTTCTCCCAGCTGATGAATTTACGTTCTCGAGTAAACAAATTTTCCTAATCTTTCTGTTCAAGCGCCATCTAC,0.763
20,GATGATTGTTCTCCCAGCTGATGAATTTTAATTTTCGAGTAAACAAATTTTCCTAATCTTTCTGTTCAAGCGCCATCTAC,0.793

row,Sequence,binding signal (RPM ratio (pull-down/input))
1,GATGATTGTTCTCCCAGCTGATGAATTTCCGCACTCGAGTAAACAAATTTTCCTAATCTTTCTGTTCAAGCGCCATCTAC,0.461
2,GATGATTGTTCTCCCAGCTGATGAATTTCATGCCTCGAGTAAACAAATTTTCCTAATCTTTCTGTTCAAGCGCCATCTAC,0.665
3,GATGATTGTTCTCCCAGCTGATGAATTAAAGGGCTCGAGTAAACAAATTTTCCTAATCTTTCTGTTCAAGCGCCATCTAC,0.234
4,GATGATTGTTCTCCCAGCTGATGAATTTCGCTCGTCGAGTAAACAAATTTTCCTAATCTTTCTGTTCAAGCGCCATCTAC,0.734
5,GATGATTGTTCTCCCAGCTGATGAATTCGGATTCTCGAGTAAACAAATTTTCCTAATCTTTCTGTTCAAGCGCCATCTAC,0.557
6,GATGATTGTTCTCCCAGCTGATGAATTTAAACTTTCGAGTAAACAAATTTTCCTAATCTTTCTGTTCAAGCGCCATCTAC,0.299
7,GATGATTGTTCTCCCAGCTGATGAATTTGGACGGTCGAGTAAACAAATTTTCCTAATCTTTCTGTTCAAGCGCCATCTAC,0.282
8,GATGATTGTTCTCCCAGCTGATGAATTTGATAACTCGAGTAAACAAATTTTCCTAATCTTTCTGTTCAAGCGCCATCTAC,0.658
9,GATGATTGTTCTCCCAGCTGATGAATTCTTATCGTCGAGTAAACAAATTTTCCTAATCTTTCTGTTCAAGCGCCATCTAC,0.365
10,GATGATTGTTCTCCCAGCTGATGAATTGGCTTGATCGAGTAAACAAATTTTCCTAATCTTTCTGTTCAAGCGCCATCTAC,0.601
11,GATGATTGTTCTCCCAGCTGATGAATTACTCCAGTCGAGTAAACAAATTTTCCTAATCTTTCTGTTCAAGCGCCATCTAC,0.213
12,GATGATTGTTCTCCCAGCTGATGAATTCGAGGGTTCGAGTAAACAAATTTTCCTAATCTTTCTGTTCAAGCGCCATCTAC,0.445
13,GATGATTGTTCTCCCAGCTGATGAATTTCATCACTCGAGTAAACAAATTTTCCTAATCTTTCTGTTCAAGCGCCATCTAC,0.799
14,GATGATTGTTCTCCCAGCTGATGAATTCGTACGCTCGAGTAAACAAATTTTCCTAATCTTTCTGTTCAAGCGCCATCTAC,0.402
15,GATGATTGTTCTCCCAGCTGATGAATTCCTGATCTCGAGTAAACAAATTTTCCTAATCTTTCTGTTCAAGCGCCATCTAC,0.254
16,GATGATTGTTCTCCCAGCTGATGAATTAACTTAGTCGAGTAAACAAATTTTCCTAATCTTTCTGTTCAAGCGCCATCTAC,0.295
17,GATGATTGTTCTCCCAGCTGATGAATTCATTAAATCGAGTAAACAAATTTTCCTAATCTTTCTGTTCAAGCGCCATCTAC,0.179
18,GATGATTGTTCTCCCAGCTGATGAATTCCAGTGGTCGAGTAAACAAATTTTCCTAATCTTTCTGTTCAAGCGCCATCTAC,0.415
19,GATGATTGTTCTCCCAGCTGATGAATTAGTTCGGTCGAGTAAACAAATTTTCCTAATCTTTCTGTTCAAGCGCCATCTAC,0.374
20,GATGATTGTTCTCCCAGCTGATGAATTGACATACTCGAGTAAACAAATTTTCCTAATCTTTCTGTTCAAGCGCCATCTAC,0.601
